Results published in PubChem BioAssay AID360 (National Center for Advancing Translational Sciences (NCATS), 2006).
The campaign covered roughly 48,000 compounds. About 550 (1.1%) were called active. Not shown: some 4% with an inconclusive outcome. No stated cut-off is given here; in the data, active means potency below about 15 µM; inconclusive means mostly about 16 µM to 33 µM; inactive means weaker than that. Some of the results follow.

Molecular target: Lysosomal acid glucosylceramidase (Homo sapiens) (UniProt P04062)
Assay: Glucocerebrosidase;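 further: the screen sought inhibitors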
Conditions: purified enzyme, resorufin glucoside fluorescence (screen aimed at inhibitors), 20 min; series mostly up to 77 µM
Summary of the method: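 Normal human glucocerebrosidase (0.2 nM final) was assayed with resorufin β-D-glucopyranoside (30 uM final) in 50mM citric acid/KH2PO4, 10mM sodium taurocholate, 0.01% tween-20, pH 5.9. Compounds were titrated; fluorescence (Ex 548, Em 600) read after 20 min at RT.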
Potency means the concentration at half of the fitted maximal effect.

Chain of UniProt P04062 (P04062 whole entry, looked up): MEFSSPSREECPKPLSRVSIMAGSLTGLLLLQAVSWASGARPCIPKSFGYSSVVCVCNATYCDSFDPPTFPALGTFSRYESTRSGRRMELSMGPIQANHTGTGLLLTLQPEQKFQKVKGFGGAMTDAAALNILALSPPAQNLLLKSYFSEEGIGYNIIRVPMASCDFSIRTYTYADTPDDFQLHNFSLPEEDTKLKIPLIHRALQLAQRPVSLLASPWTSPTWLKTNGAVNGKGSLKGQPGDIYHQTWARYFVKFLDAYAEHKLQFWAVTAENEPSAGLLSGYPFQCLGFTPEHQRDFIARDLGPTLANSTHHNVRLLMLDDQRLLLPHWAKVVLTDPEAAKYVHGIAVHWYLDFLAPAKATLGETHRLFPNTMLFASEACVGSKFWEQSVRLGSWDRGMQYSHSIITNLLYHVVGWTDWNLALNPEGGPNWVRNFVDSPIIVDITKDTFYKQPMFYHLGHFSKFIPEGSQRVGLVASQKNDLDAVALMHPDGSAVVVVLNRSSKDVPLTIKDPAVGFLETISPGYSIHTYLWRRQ

Potency, inactive:
COc1cc(NC(=O)c2ccccc2)c(OC)cc1NC(=O)CN1CCOCC1 > 76.9 µM
Cc1ccc(Cc2c(C)nc3c(C(=O)O)cnn3c2C)cc1 > 76.9 µM
CCCCn1c(=O)[nH]c(=O)c2c1nc(-c1ccncc1)n2CCOC > 76.9 µM
O=c1cnnc(NCc2ccccc2)[nH]1 > 76.9 µM
O=C(O)C1CSC(c2ccncc2)N1 (stereo not drawn) > 76.9 µM
COc1ccc(-c2n[nH]c(C)c2-c2ccc(Cl)cc2)c(O)c1OC > 76.9 µM
O=S(=O)(NCc1cccs1)c1cccc2cccnc12 > 76.9 µM
COc1ccc(C2(CCN)CC(C)N(C)CC2C)cc1 (stereo not drawn) > 76.9 µM
O=C(O)c1coc2ccccc12 > 76.9 µM
O=C1NC2(CCCCC2)N=C1c1ccc(F)cc1 > 76.9 µM
COC(=O)c1ccc(NC(=O)CN2CCN(c3ccccc3)CC2)cc1 > 76.9 µM
Cn1nnnc1SCC(=O)N1CCc2ccccc2C1 > 76.9 µM
O=C(CSc1nccn1Cc1ccccc1)Nc1nccs1 > 76.9 µM
O=C(NCCCO)c1nc2ccccc2s1 > 76.9 µM
CSc1nc2ccccc2n1CC(=O)N1CCCCC1 > 76.9 µM
CCn1cc(C(=O)NC2CCCCCC2)c2cc(OC)c(OC)cc2c1=O > 76.9 µM
CN(C)CCCN1C(=O)c2oc3ccccc3c(=O)c2C1c1cccs1 (stereo not drawn) > 76.9 µM
O=C(c1cnn2c(C(F)F)cc(-c3ccccc3)nc12)N1CCN2CCCC2C1 (stereo not drawn) > 76.9 µM
O=C1CC(c2ccccc2)C(=O)N1c1cccc(O)c1 (stereo not drawn) > 76.9 µM
COc1ccc2cc(C)c(SCC(=O)Nc3cc(C)on3)nc2c1 > 76.9 µM
CC(C)(C)NC(=O)CN(Cc1cccnc1)C(=O)c1csnn1 > 76.9 µM
COc1ccc(OC)c(C2C(C(=O)c3cccs3)=C(O)C(=O)N2c2cc(C)on2)c1 (stereo not drawn) > 76.9 µM
c1cncc(-c2nnc(-c3cccnc3)nn2)c1 > 76.9 µM
Cc1cccc(N2CCN(C(=O)C3CCN(S(=O)(=O)c4cccc5nsnc45)CC3)CC2C)c1 (stereo not drawn) > 76.9 µM
c1ccc(-n2nnnc2-n2nnc3ccccc32)cc1 > 76.9 µM
Cc1c(Cl)cccc1NC(=O)CSCc1cc(=O)[nH][nH]1 > 76.9 µM
CCCCn1c(SCC(=O)c2ccccc2)nc2c1c(=O)[nH]c(=O)n2C > 76.9 µM
COc1ccc(S(=O)(=O)N2CCCC(C(=O)NCc3ccncc3)C2)cc1 (stereo not drawn) > 76.9 µM
CCOC(=O)c1sc(=S)n(-c2cc(OC)ccc2OC)c1N > 76.9 µM
CNC(=O)c1cc2c(s1)CCCCCC2 > 76.9 µM
Cc1ccc2c(c1)cc(C)c1nnc(SCC(=O)NCc3ccco3)n12 > 76.9 µM
CCCOC(=O)Cn1c(=O)c2cc3c(=O)n(CC(=O)OCCC)c(=O)c3cc2c1=O > 76.9 µM
COc1ccccc1C(=O)n1nc(-c2ccccc2)nc1NCc1ccco1 > 76.9 µM
O=C(NCCCN1CCN(Cc2ccccc2)CC1)C1CCN(S(=O)(=O)N2CCCC2)CC1 > 76.9 µM
COc1ccccc1C1SCCN1S(C)(=O)=O (stereo not drawn) > 76.9 µM
Cc1nc2sc3c(c2c2nc(-c4ccco4)nn12)CCCC3 > 76.9 µM
Cc1cccc(C)c1NC(=O)C1CCCNC1 (stereo not drawn) > 76.9 µM
O=C(Nc1sc2c(c1C(=O)NC1CC1)CCCCCC2)c1ccco1 > 76.9 µM
COc1ccc(CCN2C(=O)CC(Nc3ccc(N4CCOCC4)cc3)C2=O)cc1OC (stereo not drawn) > 76.9 µM
CC(=O)Nc1ccc(N/C=C/C(=O)C(C)(C)C)cc1 > 76.9 µM
CC(C)CNC(=O)NC1C(NC(=O)NCC(C)C)N(C)C(=O)N1C (stereo not drawn) > 76.9 µM
CCN1CCc2nc(SCC(=O)Nc3ccc(OC)cc3)c(C#N)cc2C1 > 76.9 µM
CCn1c(SCC(=O)c2ccc(CNC(C)=O)o2)nnc1-c1cccs1 > 76.9 µM
Cc1occc1-c1nnc(SCC(=O)c2ccc(Cl)cc2)n1C > 76.9 µM
O=C1CN(C(=O)c2ccco2)C(c2ccccc2)c2cc(Cl)ccc2N1 (stereo not drawn) > 76.9 µM
Cc1ccc2c(C)c(C(=O)Nc3nnc(C)s3)oc2c1 > 76.9 µM
O=C(c1ccco1)N1CCN(c2ncnc3c(-c4ccccc4)nsc23)CC1 > 76.9 µM
CCCN1C2CCCC1CC(NC(=O)Nc1cccc(C(C)=O)c1)C2 (stereo not drawn) > 76.9 µM
OC(c1cccnc1)c1cccs1 (stereo not drawn) > 76.9 µM
Cc1nc2nc(C)c(CCC(=O)N3CCN(c4ccccn4)CC3)c(C)n2n1 > 76.9 µM
O=C(CN1CCCC1)Nc1ccc(Oc2ccc(NC(=O)CN3CCCC3)cc2)cc1
CCCCOC(=O)Nc1nnc(-c2ccccc2OC)s1 > 76.9 µM
CC1Cn2c(nnc2C23CC4CC(CC(C4)C2)C3)S1 (stereo not drawn) > 76.9 µM
CCN(CC(=O)NCc1ccc(F)cc1)C(=O)C1CCN(C(=O)Nc2ccccc2)CC1 > 76.9 µM
O=C(Cc1ccccc1)Nc1ccc(C(=O)O)cc1 > 76.9 µM
CCCn1c(SCC(=O)N2CCc3ccccc3C2)nc2c1c(=O)n(C)c(=O)n2C > 76.9 µM
O=C1CC(C(=O)Nc2ccccc2)N=C(N2CCOCC2)N1 (stereo not drawn) > 76.9 µM
CC1CN(Cc2cc(=O)n3ccsc3n2)CC(C)O1 (stereo not drawn) > 76.9 µM
CC(=O)Nc1ccc(S(=O)(=O)N2CCN(C34CC5CC(CC(C5)C3)C4)CC2)cc1 > 76.9 µM
CCCN1Cc2cccc(C(N)=O)c2C1=O > 76.9 µM
CS(=O)(=O)N1CCN(c2ccccc2NC(=O)CSc2ccc(Cl)cc2)CC1 > 76.9 µM
CC1=C(C#N)C(NC(=O)C2CC2)(C(F)(F)F)C(=O)N1 (stereo not drawn) > 76.9 µM
CCN(C(=O)c1cc2cc(OC)ccc2oc1=O)c1ccccc1 > 76.9 µM
O=S(NCc1ccccc1)C12CC3CC(CC(C3)C1)C2 (stereo not drawn) > 76.9 µM
CCOc1ccc(OCC)c(NC(=O)CSc2nc3c(c(=O)n(C)c(=O)n3C)n2C(C)C)c1 > 76.9 µM
CCCc1cc2c(=O)c(-c3ccccn3)c(C)oc2cc1O > 76.9 µM
Cc1cc(NC(=O)c2cccc(S(=O)(=O)N3CCCC3)c2)no1 > 76.9 µM
O=C1CC(O)(C(F)F)Oc2ccc3ccccc3c21 (stereo not drawn) > 76.9 µM
Nc1cc(OC(=O)c2ccco2)nn1S(=O)(=O)c1ccc(F)cc1 > 76.9 µM
COc1cc(C)nc(OCCNS(=O)(=O)c2cc(C)ccc2C)n1 > 76.9 µM
Cc1ccc(S(=O)(=O)C(C#N)c2nc3ccccc3nc2N2CC(C)OC(C)C2)cc1C (stereo not drawn) > 76.9 µM
Cn1cccc1C(=O)N1CCN(c2cccc(C(F)(F)F)c2)CC1 > 76.9 µM
CC(C)CCn1c(N2CCN(Cc3ccccc3)CC2)nc2c1c(=O)[nH]c(=O)n2C > 76.9 µM
COc1ccc(NC(=O)c2ccco2)cc1NC(=O)c1cccs1 > 76.9 µM
O=S(=O)(NC1CCCC1)c1ccc(S(=O)(=O)NC2CCCC2)cc1 > 76.9 µM
Cc1ccc(C)c(/C(O)=C2/C(=O)C(=O)N(CCN3CCOCC3)C2c2ccc(C)o2)c1 (stereo not drawn) > 76.9 µM
Cc1ccc(-n2ncc3c2ncn2c(-c4ccncc4)nnc32)cc1 > 76.9 µM
CNC(=O)N(C1=NCC(C)S1)c1ccc(F)cc1F (stereo not drawn) > 76.9 µM
COc1ccc(C(=O)Nc2c3c(nn2-c2cccc(Cl)c2)CS(=O)C3)cc1 (stereo not drawn) > 76.9 µM
CCOC(=O)C1C(=O)CC(=O)CC1CC(C)SCC (stereo not drawn) > 76.9 µM
CCCOP(=O)(c1ccc(N(C)C)cc1)C(O)c1ccncc1 (stereo not drawn) > 76.9 µM
O=C(c1ccc(COc2ccc(F)cc2)o1)n1cccn1 > 76.9 µM
COCCn1nnnc1CN1CCC(NC(=O)Nc2cccc(OC)c2)CC1 > 76.9 µM
CC1(C)CC(=O)C2=C(C1)Oc1ncn(CCO)c(=N)c1C2c1ccccc1 (stereo not drawn) > 76.9 µM
CC(C)N=C1SCC(C)(/C=N/O)S1 (stereo not drawn) > 76.9 µM
CCOC(=O)c1ccc(N=c2sc(C(=O)OC)cc(=O)n2C2CC2)cc1 > 76.9 µM
c1ccc(CSc2nnc(-c3ccco3)n2Cc2ccccc2)cc1 > 76.9 µM
Cn1c(=O)c2c(nc(CN3CCN(c4ccc(F)cc4)CC3)n2Cc2ccccc2F)n(C)c1=O > 76.9 µM
CC1CCCCC1NC(=O)CCS(=O)(=O)c1cccc2nonc12 (stereo not drawn) > 76.9 µM
Cc1nn(C)c(C)c1NC(=O)c1ccc(S(=O)(=O)N(C)C)cc1 > 76.9 µM
CN(C)/C=N/c1c(C(=O)NCc2ccccc2)nnn1Cc1ccccc1 > 76.9 µM
CCCCN(C)CCCNC(=O)Cn1c(=O)sc2ccccc21 > 76.9 µM
COc1cccc(OC)c1C(=O)N1CCN(c2ccccn2)CC1 > 76.9 µM
